# According to PubChem BioAssay AID1645882 (National Center for Advancing Translational Sciences (NCATS), 2021):
# The whole screen tested about 16,000 compounds, of which about 120 (0.75%) were called active. Inconclusive results (about 4%) are left out. Calls come from the whole dose curve; as a rule, active = well fitted inhibition curve with a large enough effect; inconclusive = small, poorly fitted or top-dose-only effect; inactive = no such curve, though single readings can be large or run the other way. The list shows a part of the results.
# Target: Rap guanine nucleotide exchange factor 3 (Homo sapiens) (UniProt O95398)
# Assay: Validation qHTS for antagonist of cAMP-regulated guanine nucleotide exchange factor 3 (EPAC1);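 note: plate controls were DMSO for no effect and ATA control for full effect; nearly all actives have a fitted effect of over 75% in size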
# Settings: EPAC1 Rap1B-BODIPY-GDP exchange, fluorescence; activity change, negative = inhibition: at the top concentration
# Procedure, shortened: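 Nucleotide exchange followed as fluorescence loss when BODIPY-GDP leaves Rap1B (480 nm excitation, 540 nm emission), read at 5 min intervals over 30 min. Reaction: 100 nM EPAC1, 250 nM RAP1B-BODIPY-GDP, 50 uM GDP; ATA and DMSO define normalization.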
# Chain of UniProt O95398 (O95398 whole entry, looked up): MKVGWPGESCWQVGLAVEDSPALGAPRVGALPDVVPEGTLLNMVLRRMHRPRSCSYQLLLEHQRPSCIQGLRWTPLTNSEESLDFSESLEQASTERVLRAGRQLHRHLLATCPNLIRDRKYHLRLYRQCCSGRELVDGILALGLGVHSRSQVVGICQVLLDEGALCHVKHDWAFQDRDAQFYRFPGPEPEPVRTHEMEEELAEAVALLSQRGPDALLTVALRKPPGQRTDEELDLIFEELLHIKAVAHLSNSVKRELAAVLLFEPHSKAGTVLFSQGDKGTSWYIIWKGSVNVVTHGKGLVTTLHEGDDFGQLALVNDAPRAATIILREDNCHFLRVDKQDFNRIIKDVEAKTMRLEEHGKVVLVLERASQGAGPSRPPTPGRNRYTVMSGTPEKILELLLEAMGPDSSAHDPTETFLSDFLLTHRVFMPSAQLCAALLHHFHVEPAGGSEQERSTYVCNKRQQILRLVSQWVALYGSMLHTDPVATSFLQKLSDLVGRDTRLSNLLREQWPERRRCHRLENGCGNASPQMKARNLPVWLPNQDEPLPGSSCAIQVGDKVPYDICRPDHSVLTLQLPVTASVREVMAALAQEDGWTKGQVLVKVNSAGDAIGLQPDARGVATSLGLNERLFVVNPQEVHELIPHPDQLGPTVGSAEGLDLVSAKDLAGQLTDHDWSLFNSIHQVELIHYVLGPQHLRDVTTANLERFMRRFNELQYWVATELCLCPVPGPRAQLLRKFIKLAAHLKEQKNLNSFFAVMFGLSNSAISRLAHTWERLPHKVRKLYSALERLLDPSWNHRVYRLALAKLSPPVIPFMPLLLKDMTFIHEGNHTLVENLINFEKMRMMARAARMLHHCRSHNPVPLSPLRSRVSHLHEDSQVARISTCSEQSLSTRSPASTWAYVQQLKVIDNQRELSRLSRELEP
row,SMILES,"activity change, negative = inhibition"
1,Cc1cccc(Cc2cnc[nH]2)c1C,inactive: 18%
2,CCCCC/C=C\C/C=C\C/C=C\CCCCCCC(=O)NCCO,inactive: 0.232% [at 15.3 µM]
3,CCc1cc(OC)c(C[C@@H](C)N)cc1OC,inactive: 26.2% [at 320 µM]
4,O=C1C=CC(=O)C=C1,inactive: 11.4% [at 75.8 µM]
5,CCC(=O)O[C@](Cc1ccccc1)(c1ccccc1)[C@H](C)CN(C)C,inactive: 12.9% [at 320 µM]
6,CCOP(=S)(OCC)Oc1ccc2c(C)c(Cl)c(=O)oc2c1,inactive: 8.51%
7,CCOC(=O)[C@]12Cc3cc4c(cc3[C@H]1N(Cc1ccccc1)C(=O)c1ccccc12)OCO4,inactive: -2.57%
8,C[C@@H](Cc1cccc(C(F)(F)F)c1)NCCCc1ccccc1,inactive: -12.3%
9,CC(C)[C@]1(NC(=O)[C@@H]2C=C3c4cccc5[nH]cc(c45)C[C@H]3N(C)C2)O[C@@]2(O)C3CCCN3C(=O)[C@H](Cc3ccccc3)N2C1=O (stereo partly drawn),inactive: 19%
10,CCOC(=O)NC(O)C(Cl)(Cl)Cl (stereo not drawn),inactive: 8.68%
11,COc1ccc(C(c2ccc(OC)cc2)C(Cl)(Cl)Cl)cc1,inactive
12,O=C(Oc1ccccc1)N1CCC2(CCCN(Cc3ccccc3)C2)CC1,inactive: 7.73%
13,COC(=O)NC(=S)Nc1ccccc1NC(=S)NC(=O)OC,inactive: 18.6%
14,CCN1C[C@]2(COC)[C@H](O)C[C@H](OC)[C@]34C1C([C@H](OC)[C@H]23)[C@]1(OC(C)=O)C2[C@@H](OC(=O)c3ccccc3)C(O)(C[C@H]24)[C@@H](OC)[C@@H]1O,inactive: 14.1%
15,CCC1(CC)C(=O)NC(=O)N(C)C1=O,inactive: 22%
16,COC(C)C(O)(C(=O)OC1=CCN2CC[C@H](O)[C@H]12)C(C)C (stereo partly drawn),inactive: 13.1%
17,CCC1CN2CCC1CC2C(O)c1ccnc2ccccc12 (stereo not drawn),inactive: 12%
18,COc1ccccc1N1CCNCC1,inactive
19,CC1(C)S[C@H]2[C@@H](N)C(=O)N2[C@H]1C(=O)O,inactive: 15.7%
20,CC(=O)c1c(O)c(C)c(O)c(Cc2c(O)c3c(c(C(=O)/C=C/c4ccccc4)c2O)OC(C)(C)C=C3)c1O,inactive
21,CC(=O)[C@H]1CC[C@H]2[C@@H]3CC[C@H]4C[C@H](O)CC[C@]4(C)[C@H]3C(=O)C[C@]12C,inactive
22,CCOc1cc(C=O)ccc1O,inactive: -6.43%
23,C=C1C[C@@H]2[C@H](CC[C@]3(C)C(=O)CC[C@@H]23)[C@@]2(C)C=CC(=O)C=C12,inactive: 24%
24,CC1CC2CC(=O)C3CCCN4CCCC2[C@]34C1 (stereo partly drawn),inactive: 15.9%
25,CNC(C)Cc1ccccc1OC (stereo not drawn),inactive: 31.6%

row,SMILES,"activity change, negative = inhibition"
1,CC(=O)OC1C[C@@]2(C)C(c3ccoc3)C[C@H]3O[C@@]32[C@@]2(C)C(=O)C(O)=C3C(C)(C)C(=O)C=C[C@]3(C)C12 (stereo partly drawn),inactive: -4.89%
2,COc1cc(C2c3cc4c(cc3C(O)C3COC(=O)C23)OCO4)cc(OC)c1O (stereo not drawn),inactive: 15.4%
3,O=P(O)(O)C(Cl)(Cl)P(=O)(O)O,inactive
4,C[C@]12C/C(=C/O)C(=O)C[C@@H]1CC[C@@H]1[C@@H]2CC[C@@]2(C)[C@H]1CC[C@]2(C)O,inactive: 6.7%
5,CC(C)=CCN1CC[C@]2(C)c3cc(O)ccc3C[C@H]1[C@H]2C,inactive: 18.3% [at 320 µM]
6,C[C@H]1CNCCc2ccc(Cl)cc21,inactive: 10.6%
7,O=C(O)c1cc[c]([Hg][Cl])cc1,inactive: 0% [at 75.8 µM]
8,FC(F)(F)c1cccc(N2CCNCC2)c1,inactive: -3.76%
9,CC1=NN=C(c2ccc(N)cc2)c2cc3c(cc2C1)OCO3,inactive
10,COc1cc(=O)n2c(c1C(=O)N(C)Cc1nonc1C)CCN(C(=O)C1C(C)(C)C1(C)C)CC2,inactive: -1.3%
11,CC1CC(Cl)CCC1C(=O)OC(C)(C)C (stereo not drawn),inactive: 11.9%
12,Cc1c(O)c(O)cc2c1CC=C1[C@]3(C)CC[C@]4(C)CC[C@@](C)(C(=O)O)CC4[C@]3(C)CC[C@]12C (stereo partly drawn),inactive: 12.8%
13,NC(=O)[C@H](Cc1ccccc1)NC(=O)[C@H](Cc1c[nH]c2ccccc12)NC(=O)[C@@H]1CCCN1C(=O)[C@@H](N)Cc1ccc(O)cc1,inactive: 5.24% [at 15.3 µM]
14,O=C(c1ccco1)N1CCC2(CC1)CN(Cc1ccncc1)C2,inactive: 8.72%
15,CCN(Cc1ccc(Cl)nc1)/C(=C/[N+](=O)[O-])NC,inactive: 18.1%
16,C1CN(P2(N3CC3)=NP(N3CC3)(N3CC3)=NP(N3CC3)(N3CC3)=N2)CCO1 (stereo not drawn),inactive: 29.7%
17,CNC(=O)Oc1cccc2c1OC(C)(C)C2,inactive: 8.37%
18,C/C(O)=C(\C#N)C(=O)Nc1cc(Br)ccc1Br,inactive: 14.6% [at 75.8 µM]
19,CN1CC[C@]23c4c5ccc(O)c4O[C@H]2[C@@H](O)CC[C@H]3[C@H]1C5,inactive: -3.96% [at 320 µM]
20,COc1cc([C@@H]2c3cc4c(cc3[C@@H](O)[C@H]3COC(=O)[C@H]23)OCO4)cc(OC)c1O,inactive: 15.5%
21,c1ccc2c(c1)Sc1ccccc1N2C[C@@H]1CN2CCC1CC2,inactive: 28.5%
22,CN1CC[C@@]2(CCCN(C(=O)Oc3ccccc3)C2)C1,inactive: 34.6%
23,OC[C@@H](O)[C@H]1O[C@@H]2O[C@@H](C(Cl)(Cl)Cl)O[C@@H]2[C@H]1O,inactive: -0.741%
24,CCCC(C)(COC(N)=O)COC(=O)NC(C)C (stereo not drawn),inactive
25,COc1ccc(CC2NCC(O)C2OC(C)=O)cc1 (stereo not drawn),inactive: -7%

row,SMILES,"activity change, negative = inhibition"
1,CCCC1CCCCN1 (stereo not drawn),inactive: 20%
2,CN1C(=O)CC(=O)N(c2ccccc2)c2cc(Cl)ccc21,inactive: 15.9%
3,CCC1(C)CC(=O)NC(=O)C1,inactive: 13.9% [at 75.8 µM]
4,CC1C(=O)OC2CCN3CC=C(COC(=O)[C@](C)(O)[C@]1(C)O)C23 (stereo partly drawn),inactive: 5.15%
5,CCCCC/C=C\C/C=C\C/C=C\C/C=C\CCCC(=O)NCC(=O)O,inactive
6,O=C(Nc1cccc(F)c1)N1CC2(CCN(C(=O)Oc3ccccc3)CC2)C1,inactive: -4.47%
7,O=C(N[C@H]1N=C(c2ccccc2F)c2cccc3c2N(CC3)C1=O)c1cc2ccccc2[nH]1,inactive: -25%
8,C=C1C([C@@]2(C)C(OC(C)=O)CC(=O)O[C@@](C)(COC(C)=O)C2CC(=O)OC)C(OC=O)C(OC(=O)C(OC(C)=O)C(C)CC)[C@]2(C)C(c3ccoc3)CC(=O)C12O (stereo partly drawn),inactive: -15.6%
9,ClCCN(CCCl)c1ccc(C=Nc2ccc(/C=C/c3ccnc4ccccc34)cc2)cc1,inactive: -15.2%
10,CS(=O)(=O)N1CCC2(CCCN(Cc3ccncc3)C2)CC1,inactive: 23.4%
11,O=C1NCN(c2ccccc2)C12CCN(C[C@H]1COc3ccccc3O1)CC2,inactive: -7.13%
12,CC(O)CN1CCN(CC(=O)[O-])CCN(CC(=O)[O-])CCN(CC(=O)[O-])CC1.[Gd+3] (stereo not drawn),inactive
13,C[C@H]1C(=O)O[C@H]2CCN3CC=C(COC(=O)[C@](C)(O)[C@@]1(C)O)C23 (stereo partly drawn),inactive: 9.12%
14,CC(=O)OC1C2C(OC(=O)Cc3ccccc3)C(C)CC2(OC(C)=O)C(=O)/C(C)=C/C2C(CC[C@@]13CO3)C2(C)C (stereo partly drawn),inactive: -0.931%
15,OC(c1ccccc1)(c1ccccc1)C1CCNCC1,inactive: 10.1% [at 75.8 µM]
16,C[C@]12CCC(=O)C=C1CC[C@@H]1[C@@H]2CC[C@]2(C)C(=O)CC[C@@H]12,inactive
17,CC1=CCCC2C1(C)CCC(C)C2(C)CC/C(C)=C/C[n+]1cn(C)c2c(N)ncnc21 (stereo not drawn),inactive: 5.58%
18,COCC#CCN1CCCCC1c1cccnc1 (stereo not drawn),inactive: 14.4%
19,NC(=O)OCCCc1ccccc1,inactive: -6.42%
20,Nc1c(Cl)c(Cl)c(Cl)c(Cl)c1Cl,inactive: 28.6% [at 320 µM]
21,COc1ccc(NC(=O)N2CCC3(CC2)CCN(C(=O)Oc2ccccc2)CC3)cc1,inactive: -2.47%
22,NC1CCc2cc(O)c(O)cc2C1 (stereo not drawn),inactive
23,CC1CC(O)[C@]2(O)[C@]13CC(=O)OC[C@@]2(C)[C@@](C)(O)C(=O)C3 (stereo partly drawn),inactive: 11.4%
24,Cc1cccc(C(C)c2cnc[nH]2)c1C (stereo not drawn),inactive: 13.9%
25,COc1cc(OC)c(OC)cc1C=O,inactive

row,SMILES,"activity change, negative = inhibition"
1,O=C(O)[C@@H]1C[C@H]2C[C@@H](CP(=O)(O)O)CC[C@H]2CN1,inactive: 1.71%
2,NN=C(N)N,inactive
3,COc1cc2c(cc1O)CC1c3c(cc(O)c(OC)c3-2)CCN1C (stereo not drawn),inactive
4,C#CC(C)(O)CC (stereo not drawn),inactive: 4.87%
5,C[C@H](NC(=O)[C@@H](N)Cc1ccc(O)cc1)C(=O)NCC(=O)N(C)[C@@H](Cc1ccccc1)C(=O)N[C@H](CO)CCS(C)=O (stereo partly drawn),inactive: 14.9% [at 15.3 µM]
6,CN1C[C@@H](C(=O)N[C@@]2(C)O[C@]3(O)C4CCCN4C(=O)[C@@H](Cc4ccccc4)N3C2=O)C=C2c3cccc4[nH]cc(c34)C[C@@H]21 (stereo partly drawn),inactive: 7.81%
7,Clc1ccc(C(c2ccc(Cl)cc2)C(Cl)(Cl)Cl)cc1,inactive
8,COC[C@]12CN(C=O)C3C4C(OC)C1[C@@]3(C1CC3(O)C(OC)C(O)C4(OC(C)=O)C1C3OC(=O)c1ccccc1)[C@@H](OC)CC2O (stereo partly drawn),inactive: -13.9%
9,CCC1CN2CCC1CC2C(O)c1ccnc2ccc(OC)cc12 (stereo not drawn),inactive: 3.61%
10,COc1cc(N)c(Cl)cc1C(=O)NC1CN2CCC1CC2 (stereo not drawn),inactive: 7.14%
11,C[N+]1(C)C2CCC1CC(OC(=O)c1c[nH]c3ccccc13)C2 (stereo not drawn),inactive: -6.06% [at 75.8 µM]
12,CC(Cc1cccc(C(F)(F)F)c1)NCCCc1ccccc1 (stereo not drawn),inactive: -0.579%
13,c1ccc2sc(C3(N4CCCCC4)CCCCC3)cc2c1,inactive
14,COc1ccc(CCN)cc1,inactive: 37.5%
15,COc1ccc(NC(=O)N2CC3(CCN(C(=O)Oc4ccccc4)CC3)C2)cc1,inactive: 14.4%
16,CC(O)C(C)OC(=O)[C@@H]1C[C@@H]2c3cccc4c3c(cn4C(C)C)C[C@H]2N(C)C1 (stereo partly drawn),inactive: 32.4%
17,CCc1cc2c(s1)-n1c(C)nnc1CN=C2c1ccccc1Cl,inactive: 7.82%
18,c1cc(CN2CCC3(CCNCC3)CC2)ccn1,inactive: 6.99%
19,C[C@]12CCC(=O)C(O)=C1CC[C@@H]1[C@H]3CCC(=O)[C@@]3(C)CC[C@@H]12,inactive: 15.4%
20,CN1CC(CO)=C[C@H]2c3cccc4[nH]cc(c34)C[C@H]21,inactive: 11.6%
21,CN[C@@H]1C[C@H](c2ccc(Cl)c(Cl)c2)c2ccccc21,inactive: -15.5%
22,C[C@H]1CC[C@]2(NC1)O[C@H]1C[C@H]3[C@@H]4CC[C@H]5C[C@@H](O[C@@H]6O[C@H](CO)[C@H](O[C@@H]7O[C@H](CO)[C@@H](O)[C@H](O[C@@H]8OC[C@@H](O)[C@H](O)[C@H]8O)[C@H]7O[C@@H]7O[C@H](CO)[C@@H](O)[C@H](O)[C@H]7O)[C@H](O)[C@H]6O)CC[C@]5(C)[C@H]4CC[C@]3(C)[C@H]1[C@@H]2C,inactive: -1.18%
23,C[N+]1([O-])CCC[C@@H]1c1cccnc1 (stereo partly drawn),inactive: 27%
